{"source": "PubChem BioAssay AID686979", "about": "(National Center for Advancing Translational Sciences (NCATS), 2013)", "note": "Screen size: about 420,000 compounds; about 50,000 (12%) were called active. This list was built around the results that the source calls inconclusive (neither active nor inactive); the mix of calls is not that of the screen. Calls come from the whole dose curve; as a rule, active = well fitted inhibition curve with a large enough effect; inconclusive = small, poorly fitted or top-dose-only effect; inactive = flat fitted curve, though single readings scatter. Potencies of inconclusive entries are left out as doubtful fits. % is set by controls: 0 for no effect and ±100 for the full control effect; potency is the fitted concentration of half-maximal effect; tags give direction and shape of the fitted curve."}
{"assay": "qHTS for Inhibitors of human tyrosyl-DNA phosphodiesterase 1 (TDP1): qHTS in cells in presence of CPT; note: nearly all actives have a fitted effect of over 55% in size", "settings": "chicken DT40 Tdp1-/-;hTDP1 cells + 20 nM CPT, ATP luminescence, 48 h; activity change, negative = growth inhibition: at 46.2 µM (top of the series) unless noted", "summary_of_the_method": "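Cell growth measured by CellTiter-Glo luminescence after a minimum 48 h, 37 C compound exposure with 20 nM CPT in Tdp1-knockout DT40 cells stably expressing hTDP1, seeded 400/well; qHTS titration format.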"}
{"smiles": "Cc1ccc2c(c1)N(S(=O)(=O)c1cc(-c3cc(C)no3)ccc1C)CCO2", "Potency": "inconclusive [inhibitor, single point]"}
{"smiles": "Cc1ccc(-c2ncccc2OC(=O)C23CC4CC(CC(C4)C2)C3)cc1", "Potency": "inconclusive [inhibitor, partial curve, poor fit]"}
{"smiles": "COc1ccccc1NS(=O)(=O)c1cc(NC(=S)NCCN2CCOCC2)ccc1N1CCOCC1", "Potency": "inconclusive [inhibitor, single point]"}
{"smiles": "CN1CCN(c2ccc(S(=O)(=O)N3CCOCC3)cc2NC(=O)CSCc2ccccc2)CC1", "Potency": "inconclusive [inhibitor, partial curve]"}
{"smiles": "CC1CCc2sc(C(=O)NNS(=O)(=O)c3ccc(F)c(F)c3F)cc2C1", "note": "(stereo not given)", "Potency": "inconclusive [inhibitor, partial curve]"}
{"smiles": "O=C(CCc1nnc(Cc2c[nH]c3ccccc23)o1)NCC1CC12CCCCC2", "note": "(stereo not given)", "Potency": "inconclusive [inhibitor, partial curve, poor fit]"}
{"smiles": "O=S1(=O)N=C(Nc2ccc(N3CCOCC3)c(Cl)c2)c2ccccc21", "Potency": "inconclusive [inhibitor, single point]"}
{"smiles": "Cc1ccc(CC(=O)NCc2nc(-c3cccc(C)c3)no2)cc1", "activity change, negative = growth inhibition": "inactive: -17.4%"}
{"smiles": "COc1cc(NS(=O)(=O)c2ccc(NC(=O)c3cccnc3)cc2)ncn1", "activity change, negative = growth inhibition": "inactive: 5.16%"}
{"smiles": "Clc1ccc(C(c2cccs2)N2CCNCC2)cc1", "note": "(stereo not given)", "Potency": "active: 13 µM"}
{"smiles": "CCCn1c(CC)nc([N+](=O)[O-])c1Sc1ncn[nH]1", "Potency": "inconclusive [inhibitor, single point]"}
{"smiles": "Cc1nc2ccc(C(=O)N(C)Cc3ccco3)cn2c1N(C)C(=O)CCc1ccccc1", "Potency": "inconclusive [inhibitor, single point]"}
{"smiles": "CC(=O)C1=C(O)CC(c2ccccc2)CC1=NCCc1ccccc1", "note": "(stereo not given)", "Potency": "inconclusive [inhibitor, single point]"}
{"smiles": "COc1cccc(/C=N/NC(=O)CCn2cnc3ccccc32)c1", "activity change, negative = growth inhibition": "inactive: 5.4%"}
{"smiles": "COc1c(O)cc2c(c1O)[C@@H]1O[C@H](CO)[C@@H](O)[C@H](O)C1OC2=O", "note": "(stereo not given in full)", "activity change, negative = growth inhibition": "inactive: -5.63%"}
{"smiles": "COc1c(C)cc(C(O)c2ncc(-c3ccccc3C(F)(F)F)[nH]2)cc1C", "note": "(stereo not given)", "Potency": "inconclusive [inhibitor, single point]"}
{"smiles": "CN(C)CCCNc1nc(N)c([N+](=O)[O-])c(NC2CCCCC2)n1", "Potency": "inconclusive [inhibitor, single point]"}
{"smiles": "COC(=O)c1ccccc1NC(=S)N(Cc1ccc2c(c1)OCO2)Cc1cc2ccc(C)cc2[nH]c1=O", "Potency": "inconclusive [inhibitor, single point]"}
{"smiles": "COc1cccc(NC(=O)CSc2nnc(NC(=O)NC3CCCCC3)s2)c1", "Potency": "inconclusive [inhibitor, single point]"}
{"smiles": "Cc1ccc(NC(=O)C2=C(O)CCn3c2nc2ccccc23)cc1", "Potency": "inconclusive [inhibitor, single point]"}
{"smiles": "COc1cc(OC)c(NC(=O)C(C)n2nc(-c3ccc(C)c(C)c3)ccc2=O)cc1Cl", "note": "(stereo not given)", "Potency": "active: 14.6 µM"}
{"smiles": "O=C(Nc1ccc(O)c(-c2nc3ccccc3s2)c1)c1cc(=O)c2ccccc2o1", "Potency": "active: 9.2 µM"}
{"smiles": "CCCCNC(=O)[C@H]1C[C@H]1[C@@H](O)[C@H](CO)NC(=O)[C@H](Cc1ccccc1)NC(=O)OC(C)(C)C", "activity change, negative = growth inhibition": "inactive: -20.7%"}
{"smiles": "CCOC(=O)C[C@H]1c2cc(F)ccc2S(=O)(=O)N1c1ccccc1", "Potency": "inconclusive [inhibitor, single point]"}
{"smiles": "O=S1(=O)CCN(CCc2ccccc2)CC1", "activity change, negative = growth inhibition": "inactive: 2.05%"}
{"smiles": "CC(NC(=O)CN1CCOCC1)c1ccc(F)cc1", "note": "(stereo not given)", "activity change, negative = growth inhibition": "inactive: -17.7%"}
{"smiles": "CCn1c(=O)n(CC(=O)Nc2cc(OC)ccc2OC)c(=O)c2ccccc21", "Potency": "inconclusive [inhibitor, single point]"}
{"smiles": "COc1ccc(NC(=O)CCC(=O)Nc2cc(OC)c(NC(=O)c3ccco3)cc2OC)c(OC)c1", "activity change, negative = growth inhibition": "inactive: -26.9%"}
{"smiles": "CCCN1Cc2cccc(C(=O)Nc3ccc(OC)cc3OC)c2C1=O", "Potency": "inconclusive [inhibitor, single point]"}
{"smiles": "Cc1ccc(NC(=O)N2CCc3c([nH]c4ccccc34)C2c2ccccc2F)c(Cl)c1", "note": "(stereo not given)", "Potency": "inconclusive [inhibitor, single point]"}
{"smiles": "CSc1nc(N2CCOCC2)cc(N2CCOCC2)n1", "activity change, negative = growth inhibition": "inactive: 3.28%"}
{"smiles": "CCn1nc(C)c(CN2CCCCC2C(=O)Nc2ccc(Oc3cccnc3)cc2)c1C", "note": "(stereo not given)", "Potency": "active: 9.2 µM"}
{"smiles": "CCOC12CC(C)(C)CC(C)(CC3=C1C(=O)CC(C)(C)C3)C2", "note": "(stereo not given)", "Potency": "inconclusive [inhibitor, single point]"}
{"smiles": "CCOc1ccc2[nH]c(=O)c(CN(CCN3CCCC3)C(=S)Nc3ccccc3OCC)cc2c1", "Potency": "inconclusive [inhibitor, single point]"}
{"smiles": "O=[N+]([O-])c1ccc(S(=O)(=O)c2ccccc2)nc1", "Potency": "active: 0.517 µM"}
{"smiles": "O=C(Cn1c(=O)c2sccc2n(CC(=O)Nc2ccc(Cl)cc2Cl)c1=O)NCCc1ccccc1", "Potency": "inconclusive [inhibitor, single point]"}
{"smiles": "Cc1cccc(NC(=O)CN2CCN(CC(=O)Nc3ccc(-c4ccccc4)cc3)CC2)c1C", "Potency": "inconclusive [inhibitor, single point]"}
{"smiles": "O=C(Nc1ccccc1C(=O)O)c1ncn[nH]1", "activity change, negative = growth inhibition": "inactive: -17.3%"}
{"smiles": "CC(Sc1ncnc2ccccc12)C(=O)Nc1ccc2c(c1)OCCO2", "note": "(stereo not given)", "Potency": "active: 14.6 µM"}
{"smiles": "CC(C)c1ccc(S(=O)(=O)N2CCN(C(C)C(=O)NC3CCCC3)CC2)cc1", "note": "(stereo not given)", "Potency": "inconclusive [inhibitor, single point]"}
{"smiles": "COc1ccc(NC(=O)c2ccc(-n3cncn3)c([N+](=O)[O-])c2)cc1OC", "activity change, negative = growth inhibition": "inactive: -18.1%"}
{"smiles": "S=c1[nH]nc(-c2cc(-c3ccccc3)n[nH]2)n1/N=C/c1cccc(Cl)c1", "Potency": "inconclusive [inhibitor, single point]"}
{"smiles": "Cc1c(Cc2ccccc2)sc(NC(=O)C(C)(C)C)c1C(N)=O", "Potency": "active: 16.4 µM"}
{"smiles": "COc1ccc(NC(=O)c2ccc(-n3cnnn3)cc2)c([N+](=O)[O-])c1", "Potency": "inconclusive [inhibitor, partial curve]"}
{"smiles": "COc1cc(S(=O)(=O)N2CCOCC2)ccc1NC(=O)COc1ccc(N(C)S(=O)(=O)c2ccc(C)cc2)cc1", "Potency": "inconclusive [inhibitor, single point]"}
{"smiles": "O=C(NCc1cccs1)c1cc(-c2ccccn2)nc2ccc(Br)cc12", "Potency": "inconclusive [inhibitor, single point]"}
{"smiles": "Cc1ccc(C)c(NS(=O)(=O)c2ccc3c(c2)CCCN3C(=O)C2CCC2)c1", "Potency": "inconclusive [inhibitor, single point]"}
{"smiles": "O=C(NCc1ccccc1F)C(=O)NCC(c1ccco1)S(=O)(=O)c1ccccc1", "note": "(stereo not given)", "activity change, negative = growth inhibition": "inactive: -24.9%"}
{"smiles": "Cc1ccc(C(C)C)c(OCC(=O)Nc2ccc(-c3nc4ncccc4o3)cc2C)c1", "activity change, negative = growth inhibition": "inactive: -1.08%"}
{"smiles": "O=C(NCc1ccccn1)c1[nH]c(C(F)(F)F)nc1-c1ccccc1", "activity change, negative = growth inhibition": "inactive: -0.331%"}
{"smiles": "C[C@H](CO)N1C[C@H](C)[C@H](CN(C)S(=O)(=O)c2ccccc2)OCc2cnnn2CCCC1=O", "Potency": "inconclusive [inhibitor, single point]"}
{"smiles": "COc1ccc(CNS(=O)(=O)c2ccc3c(c2)C(C)(C)C(=O)N3C)cc1OC", "activity change, negative = growth inhibition": "inactive: 4.42%"}
{"smiles": "O=[N+]([O-])c1ccc(Cl)c(S(=O)(=O)Nc2ccc(S(=O)(=O)N3CCOCC3)cc2)c1", "activity change, negative = growth inhibition": "inactive: -2.34%"}
{"smiles": "COc1cccc(Nc2ncnc3sccc23)c1", "Potency": "inconclusive [inhibitor, single point]"}
{"smiles": "O=C(c1cccc(S(=O)(=O)N2CCc3ccccc32)c1)N1CCCC(C(F)(F)F)C1", "note": "(stereo not given)", "Potency": "active: 10.3 µM"}
{"smiles": "CC(C)OCCCNc1ncnc2c1cnn2-c1ccccc1", "Potency": "inconclusive [inhibitor, single point]"}
{"smiles": "Cc1ccc(CCNC(=O)c2ccc(CNS(=O)(=O)c3ccc(F)cc3)cc2)cc1", "Potency": "active: 13 µM"}
{"smiles": "CC(C)(C)C(=O)C(C(c1ccccc1)N1CCOCC1)N1CCOCC1", "note": "(stereo not given)", "activity change, negative = growth inhibition": "inactive: -0.237%"}
{"smiles": "COC(=O)c1cc2sc(Cl)cc2n1Cc1nc(-c2ccccc2F)oc1C", "activity change, negative = growth inhibition": "inactive: -20.1%"}
{"smiles": "O=C1C=C(c2cccc(Br)c2)C[C@@H](c2ccc3c(c2)OCO3)C1", "Potency": "inconclusive [inhibitor, single point]"}
{"smiles": "NC(=O)C1CCN(C(=O)c2cc(S(=O)(=O)N3CCN(c4ccccc4)CC3)ccc2Cl)CC1", "Potency": "active: 10.3 µM"}
{"smiles": "CCOC(=O)[C@@H]1[C@H]2COc3ccccc3[C@@H]2N2C(=O)N(c3cccc(C)c3)C(=O)[C@@]12C", "activity change, negative = growth inhibition": "inactive: -8.43%"}
{"smiles": "N#CCOc1nc(N2CCCCC2)nc(N2CCCCC2)n1", "Potency": "inconclusive [inhibitor, single point]"}
{"smiles": "COc1ccccc1C(=O)N(Cc1cc2cc3c(cc2nc1N(C)C)OCO3)CC1CCCO1", "note": "(stereo not given)", "Potency": "inconclusive [inhibitor, single point]"}
{"smiles": "CCN(c1ccccc1)S(=O)(=O)c1ccc(OC)c(NC(=O)Cc2ccccc2OC)c1", "Potency": "active: 23.1 µM"}
{"smiles": "O=C(NC1CC1)C1Nc2ccc(OC(F)(F)F)cc2C2C=CCC12", "note": "(stereo not given)", "Potency": "inconclusive [inhibitor, single point]"}
{"smiles": "CCCc1ccc2oc(C(=O)NCCc3nc(C(=O)OCC)cs3)c(C)c2c1", "Potency": "inconclusive [inhibitor, single point]"}
{"smiles": "Cc1ccc2nc(-c3ccc(C#N)cc3)c(Cc3ccccn3)n2c1", "Potency": "inconclusive [inhibitor, single point]"}
{"smiles": "COc1cc(NC(=O)CN2CCC(Cc3ccccc3)CC2)c(C)cc1[N+](=O)[O-]", "Potency": "active: 7.31 µM"}
{"smiles": "Cc1ccccc1C(=O)c1cccn1CC(=O)NCCCc1ccccc1", "Potency": "inconclusive [inhibitor, single point]"}
